# Measured values reported in PMC4336329 (PLoS ONE, 2015).
# The campaign covered roughly 310,000 compounds. About 2,200 (0.71%) showed an effect of 50% or more. Effects have a minus sign here. This is one part of the list.
# Biological target: human ether-à-go-go-related gene (hERG) potassium channel (human, UniProt Q12809)
# Assay: primary screen, population patch clamp on CHO cells stably expressing hERG
# Chain of human ether-à-go-go-related gene (hERG) potassium channel (Q12809 whole entry, looked up): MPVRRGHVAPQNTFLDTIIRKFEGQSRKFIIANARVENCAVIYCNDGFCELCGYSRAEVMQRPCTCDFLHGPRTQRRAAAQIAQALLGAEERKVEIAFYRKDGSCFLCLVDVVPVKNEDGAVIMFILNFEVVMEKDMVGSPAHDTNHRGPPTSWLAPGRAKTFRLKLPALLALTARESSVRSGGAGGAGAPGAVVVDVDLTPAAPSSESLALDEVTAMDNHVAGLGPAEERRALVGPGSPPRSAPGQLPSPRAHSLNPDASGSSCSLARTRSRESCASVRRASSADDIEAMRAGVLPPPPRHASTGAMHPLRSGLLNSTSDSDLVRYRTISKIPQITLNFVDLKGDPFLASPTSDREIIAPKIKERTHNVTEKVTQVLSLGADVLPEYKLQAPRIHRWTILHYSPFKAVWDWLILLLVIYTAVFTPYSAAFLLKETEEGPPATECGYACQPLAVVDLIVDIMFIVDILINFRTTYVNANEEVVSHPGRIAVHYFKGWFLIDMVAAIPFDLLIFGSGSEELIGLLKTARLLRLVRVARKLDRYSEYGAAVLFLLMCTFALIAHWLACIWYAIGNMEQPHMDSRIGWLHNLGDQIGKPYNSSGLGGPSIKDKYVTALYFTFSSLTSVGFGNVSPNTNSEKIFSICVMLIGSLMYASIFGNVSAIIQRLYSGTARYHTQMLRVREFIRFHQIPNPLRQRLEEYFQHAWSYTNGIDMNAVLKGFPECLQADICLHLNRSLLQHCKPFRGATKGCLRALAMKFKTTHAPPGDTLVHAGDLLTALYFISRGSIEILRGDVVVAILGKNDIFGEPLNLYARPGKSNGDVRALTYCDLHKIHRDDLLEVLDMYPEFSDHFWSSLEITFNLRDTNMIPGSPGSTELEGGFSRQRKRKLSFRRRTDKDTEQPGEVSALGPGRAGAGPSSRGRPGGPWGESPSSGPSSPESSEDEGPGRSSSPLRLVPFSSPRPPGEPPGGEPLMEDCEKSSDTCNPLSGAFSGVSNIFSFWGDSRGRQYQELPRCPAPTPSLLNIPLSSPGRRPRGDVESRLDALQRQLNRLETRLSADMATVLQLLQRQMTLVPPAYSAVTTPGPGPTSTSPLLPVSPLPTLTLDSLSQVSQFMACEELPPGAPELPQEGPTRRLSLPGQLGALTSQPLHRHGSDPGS
row,Structure (SMILES),"hERG current change (%, negative = inhibition) at 1uM"
1,N/C(=N\OC(=O)COc1ccc(Br)cc1Cl)c1ccccn1,10.7%
2,Cn1c(SCC(=O)NCC2CCCO2)nnc1-c1ccc(S(=O)(=O)N2CCCC2)cc1 (stereo not shown),15.1%
3,Cn1c(=O)n(C)c2cc(S(=O)(=O)O)ccc21,3.24%
4,CCNc1nc(NC(C)C)nc(OCCOC(=O)Nc2ccccc2)n1,7.72%
5,CCOC(=O)c1c(C)[nH]c(C)c1C(=O)COC(=O)CNC(=O)c1ccc(OCC)cc1,5.18%
6,CC(C)(Cc1cccc(CC(C)(C)C(=O)O)c1)C(=O)O,16.6%
7,CC(C)[C@H](NC(=O)C1CCN(S(=O)(=O)c2ccc(F)cc2)CC1)C(=O)NCc1ccco1,10.4%
8,CCOC(=O)c1sc(=S)n(CC)c1NC(=O)c1ccccc1C,11.5%
9,CC1CN(C(=O)/C=C/c2ccc(SC(F)F)cc2)CC(C)O1 (stereo not shown),-22.2%
10,CCCC[n+]1ccn(-c2nc3ccccc3nc2[N-]S(=O)(=O)c2cccs2)c1,7.46%
11,C=C(C)COc1ccc2c(C)c(CCC(=O)NC3CC3)c(=O)oc2c1,4.96%
12,CC(C)C(=O)NN1c2ccccc2CCc2ccccc21,6.18%
13,COc1cccc(/C=N/Nc2ncc(C)c(=O)[nH]2)c1OC,10.1%
14,Cc1cc(NC(=O)c2ccc(NC(=O)C3CC3)cc2)no1,17.1%
15,Cc1cc(-n2cc(Br)c(=O)[nH]c2=O)nc(-c2ccccc2)n1,5.85%
16,NS(=O)(=O)c1ccc(O)c(NC(=O)c2ccc([N+](=O)[O-])cc2)c1,5.12%
17,COc1ccc(-c2csc3ncnc(N4CCN(S(=O)(=O)c5cccc(Br)c5)CC4)c23)cc1,17.4%
18,O=C(CSc1ncc(S(=O)(=O)c2ccccc2)c(=O)[nH]1)Nc1ccccc1Cl,-1.4%
19,COc1ccc(OC)c(S(=O)(=O)n2nnc3ccccc32)c1,-3.46%
20,Cc1ccc(NC(=O)CN2C(=O)NC(C)(c3ccc(Cl)cc3)C2=O)c(Br)c1 (stereo not shown),10.1%
21,CSc1ccc(CN(C)Cc2nc3cc(C(F)(F)F)ccc3c(=O)[nH]2)cc1,17%
22,Cc1nc(Cl)c(Cl)n1CCOc1ccccc1,9.6%
23,CCOC(=O)CSc1nnc(CNC(=O)c2ccc(S(=O)(=O)N3CCCC3)cc2)n1C,10.8%
24,CCCC(=O)NCCCc1nc2ccccc2n1C,9.05%
25,COC(=O)N=Nc1c(O)[nH]c2ccc(Br)cc12,6.7%
